According to the supplement of paper PMC4967469:
By IC50 is meant the dose at which the fit gives 50% viability; fits outside the tested doses are given as limits. The AUC spans the tested range (256-fold, ending at the top dose) of the same fit; it is 1 without any effect and falls as sensitivity rises. For some of these results: Where the top dose is marked as inferred, it was calculated from the reported fits.

Assays:
Test in all cases: Viability of human cancer cell lines after 72 h of drug (GDSC screen)
[1] = compound: C=C(c1ccc(C(=O)O)cc1)c1cc2c(cc1C)C(C)(C)CCC2(C)C [Bexarotene]; details: top dose 8 µM
Protocol: (§1)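 Human cancer cell lines in 384-well plates, medium with 10% serum, drug for 72 h over a 256-fold dose range (nine 2-fold or five 4-fold steps up to the top dose). Adherent lines were fixed and stained with the nucleic acid dye Syto60, suspension lines read with resazurin; signal relative to control wells, capped at 0 and 100%. One two-parameter sigmoid per drug and line, fitted in a mixed model over all curves with the slope shared within a line.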

[2] = compound: COc1cc(C(=O)NC2CCN(C)CC2)ccc1Nc1ncc2c(n1)N(C1CCCC1)C(C)CC(=O)N2C [NPK76-II-72-1]; details: top dose 10.24 µM; top dose inferred
Protocol: as §1

[3] = compound: COc1cc([C@@H]2c3cc4c(cc3[C@@H](O[C@@H]3O[C@@H]5CO[C@@H](C)O[C@H]5[C@H](O)[C@H]3O)[C@H]3COC(=O)[C@H]23)OCO4)cc(OC)c1O [Etoposide]; details: top dose 16 µM
Protocol: as §1

[4] = compound: COc1ccc(C(=O)CC2(O)C(=O)Nc3c(Cl)ccc(Cl)c32)cc1 [YK 4-279]; details: top dose 10 µM
Protocol: as §1

[5] = compound: Cc1ccc2nc(NCCN)c3ncc(C)n3c2c1 [BMS-345541]; details: top dose 16 µM
Protocol: as §1

[6] = compound: NC(=O)Nc1cc(-c2cccc(F)c2)sc1C(=O)N[C@H]1CCCNC1 [AZD7762]; details: top dose 2 µM
Protocol: as §1

[7] = compound: O=C(O)c1ccc(-c2c[nH]c3ncc(-c4ccccc4)cc23)cc1C1CCCC1 [GSK-650394]; details: top dose 16 µM; top dose inferred
Protocol: as §1

[8] = compound: Oc1nc(-c2ccc(C(F)(F)F)cc2)nc2c1CSCC2 [XAV 939]; details: top dose 5 µM; top dose inferred
Protocol: as §1

Row | Cell Line | AUC [1] | IC50 [1] [µM] | AUC [2] | IC50 [2] [µM] | AUC [3] | IC50 [3] [µM] | AUC [4] | IC50 [4] [µM] | AUC [5] | IC50 [5] [µM] | AUC [6] | IC50 [6] [µM] | AUC [7] | IC50 [7] [µM] | AUC [8] | IC50 [8] [µM]
1 | A4-Fuk (B-cell lymphoma, suspension) | 0.868 | 7.8 | 0.984 | > 10.2 | 0.496 | 0.976 | 0.673 | 1.94 | 0.871 | > 16 | 0.47 | 0.103 | 0.841 | 11.8 | 0.976 | > 5
2 | A253 (head and neck, adherent) | 0.92 | > 8 | 0.988 | > 10.2 | 0.131 | 0.0712 | 0.796 | 4.55 | 0.851 | 11.8 | 0.728 | 0.547 | 0.92 | > 16 | 0.987 | > 5
3 | A498 (kidney, adherent) | 0.944 | > 8 | 0.978 | > 10.2 | 0.838 | > 16 | 0.771 | 5.91 | 0.928 | > 16 | 0.834 | > 2 | 0.974 | > 16 | 0.927 | > 5
4 | A704 (kidney, adherent) | 0.852 | 5.88 | 0.944 | > 10.2 | 0.984 | > 16 | 0.821 | 5.54 | 0.975 | > 16 | 0.725 | 0.53 | 0.885 | > 16 | 0.946 | > 5
5 | ABC-1 (lung adenocarcinoma, adherent) | 0.959 | > 8 | 0.883 | > 10.2 | 0.378 | 0.429 | 0.699 | 2.57 | 0.889 | > 16 | 0.602 | 0.253 | 0.708 | 4.39 | 0.807 | 3.21
6 | ALL-PO (lymphoblastic leukaemia, suspension) | 0.747 | 2.69 | 0.458 | 0.488 | 0.461 | 0.778 | 0.95 | > 10 | 0.708 | 4 | 0.183 | 0.013 | 0.46 | 0.771 | 0.969 | > 5
7 | ALL-SIL (T-cell leukaemia, suspension) | 0.931 | > 8 | 0.427 | 0.417 | 0.354 | 0.42 | 0.532 | 0.752 | 0.522 | 1.14 | 0.558 | 0.176 | 0.551 | 1.35 | 0.979 | > 5
8 | AM-38 (glioma, semi-adherent) | 0.982 | > 8 | 0.921 | > 10.2 | 0.72 | 4.26 | 0.973 | > 10 | 0.876 | > 16 | 0.873 | 2 | 0.917 | > 16 | 0.982 | > 5
9 | AMO-1 (haematopoietic neoplasm, suspension) | 0.981 | > 8 | 0.555 | 0.881 | 0.887 | 13.4 | 0.565 | 0.915 | 0.842 | 8.95 | 0.736 | 0.524 | 0.935 | > 16 | 0.982 | > 5
10 | AN3-CA (endometrium, adherent) | 0.879 | > 8 | 0.88 | > 10.2 | 0.645 | 2.62 | 0.71 | 2.6 | 0.918 | > 16 | 0.777 | 0.879 | 0.74 | 5.22 | 0.978 | > 5
11 | ARH-77 (myeloma, suspension) | 0.97 | > 8 | 0.724 | 2.68 | 0.643 | 2.44 | 0.644 | 1.54 | 0.811 | 8.12 | 0.652 | 0.325 | 0.943 | > 16 | 0.971 | > 5
12 | ASH-3 (thyroid, adherent) | 0.927 | > 8 | 0.988 | > 10.2 | 0.561 | 1.47 | 0.545 | 0.83 | 0.918 | > 16 | 0.727 | 0.553 | 0.601 | 1.89 | 0.987 | > 5
13 | BB49-HNC (head and neck, adherent) | 0.978 | > 8 | 0.978 | > 10.2 | 0.909 | > 16 | 0.674 | 2.35 | 0.974 | > 16 | 0.818 | 1.79 | 0.911 | > 16 | 0.939 | > 5
14 | BB65-RCC (kidney, adherent) | 0.882 | > 8 | 0.954 | > 10.2 | 0.452 | 0.724 | 0.738 | 3.36 | 0.908 | > 16 | 0.618 | 0.278 | 0.89 | > 16 | 0.942 | > 5
15 | BC-1 (B-cell lymphoma, suspension) | 0.965 | > 8 | 0.667 | 1.73 | 0.402 | 0.562 | 0.498 | 0.619 | 0.807 | 6.78 | 0.91 | > 2 | 0.709 | 3.49 | 0.937 | > 5
16 | BE2-M17 (neuroblastoma, adherent) | 0.982 | > 8 | 0.89 | > 10.2 | 0.855 | 13.4 | 0.684 | 2.07 | 0.939 | > 16 | 0.769 | 0.774 | 0.986 | > 16 | 0.984 | > 5
17 | BFTC-905 (bladder, adherent) | 0.913 | > 8 | 0.859 | 6.66 | 0.394 | 0.534 | 0.552 | 0.851 | 0.893 | 14.4 | 0.829 | 1.02 | 0.462 | 0.8 | 0.939 | > 5

Row | Cell Line | AUC [1] | IC50 [1] [µM] | AUC [2] | IC50 [2] [µM] | AUC [3] | IC50 [3] [µM] | AUC [4] | IC50 [4] [µM] | AUC [5] | IC50 [5] [µM] | AUC [6] | IC50 [6] [µM] | AUC [7] | IC50 [7] [µM] | AUC [8] | IC50 [8] [µM]
18 | BHT-101 (thyroid, adherent) | 0.973 | > 8 | 0.965 | > 10.2 | 0.684 | 3.33 | 0.644 | 1.58 | 0.878 | > 16 | 0.824 | 1.23 | 0.888 | > 16 | 0.677 | 0.993
19 | BICR10 (head and neck, adherent) | 0.938 | > 8 | 0.978 | > 10.2 | 0.823 | 11.4 | 0.714 | 2.79 | 0.963 | > 16 | 0.434 | 0.0801 | 0.978 | > 16 | 0.966 | > 5
20 | BICR22 (head and neck, adherent) | 0.95 | > 8 | 0.967 | > 10.2 | 0.904 | > 16 | 0.654 | 1.78 | 0.977 | > 16 | 0.738 | 0.674 | 0.982 | > 16 | 0.905 | > 5
21 | BICR78 (head and neck, adherent) | 0.965 | > 8 | 0.925 | > 10.2 | 0.696 | 3.91 | 0.638 | 1.6 | 0.946 | > 16 | 0.525 | 0.148 | 0.976 | > 16 | 0.967 | > 5
22 | BL-41 (Burkitt lymphoma, suspension) | 0.989 | > 8 | 0.581 | 1.01 | 0.577 | 1.54 | 0.567 | 0.912 | 0.829 | 6.92 | 0.404 | 0.0728 | 0.645 | 2.27 | 0.994 | > 5
23 | BT-20 (breast, adherent) | 0.975 | > 8 | 0.968 | > 10.2 | 0.736 | 5.65 | 0.821 | 7.66 | 0.907 | > 16 | 0.866 | > 2 | 0.962 | > 16 | 0.965 | > 5
24 | BT-483 (breast, adherent) | 0.969 | > 8 | 0.969 | > 10.2 | 0.946 | > 16 | 0.966 | > 10 | 0.917 | > 16 | 0.949 | > 2 | 0.975 | > 16 | 0.975 | > 5
25 | BV-173 (chronic myeloid leukaemia, suspension) | 0.948 | > 8 | 0.882 | 8.64 | 0.742 | 4.44 | 0.574 | 0.972 | 0.836 | 8.84 | 0.431 | 0.0828 | 0.709 | 3.57 | 0.981 | > 5
26 | Becker (glioma, adherent) | 0.927 | > 8 | 0.907 | > 10.2 | 0.83 | 11.9 | 0.554 | 0.892 | 0.923 | > 16 | 0.745 | 0.696 | 0.953 | > 16 | 0.922 | > 5
27 | BxPC-3 (pancreas, adherent) | 0.982 | > 8 | 0.859 | > 10.2 | 0.856 | 15.5 | 0.7 | 2.45 | 0.866 | > 16 | 0.625 | 0.29 | 0.86 | > 16 | 0.926 | > 5
28 | C3A (liver, adherent) | 0.948 | > 8 | 0.988 | > 10.2 | 0.744 | 5.18 | 0.794 | 4.82 | 0.95 | > 16 | 0.955 | > 2 | 0.828 | 10.4 | 0.973 | > 5
29 | CA46 (Burkitt lymphoma, suspension) | 0.956 | > 8 | 0.676 | 2.07 | 0.913 | > 16 | 0.762 | 3.83 | 0.716 | 4.31 | 0.834 | 1.44 | 0.906 | > 16 | 0.95 | > 5
30 | CAKI-1 (kidney, adherent) | 0.799 | 6.34 | 0.972 | > 10.2 | 0.757 | 8.21 | 0.818 | 9.79 | 0.811 | 14.4 | 0.64 | 0.369 | 0.933 | > 16 | 0.843 | > 5
31 | CAL-29 (bladder, adherent) | 0.98 | > 8 | 0.953 | > 10.2 | 0.67 | 3.09 | 0.742 | 3.27 | 0.934 | > 16 | 0.675 | 0.402 | 0.981 | > 16 | 0.915 | > 5
32 | CAL-39 (cervix, adherent) | 0.95 | > 8 | 0.966 | > 10.2 | 0.723 | 4.41 | 0.611 | 1.28 | 0.925 | > 16 | 0.909 | > 2 | 0.697 | 3.66 | 0.963 | > 5
33 | CAL-51 (breast, adherent) | 0.951 | > 8 | 0.991 | > 10.2 | 0.448 | 0.735 | 0.648 | 1.51 | 0.941 | > 16 | 0.745 | 0.558 | 0.733 | 4.13 | 0.949 | > 5
34 | CAL-72 (osteosarcoma, adherent) | 0.908 | > 8 | 0.984 | > 10.2 | 0.907 | > 16 | 0.74 | 3.5 | 0.984 | > 16 | 0.66 | 0.378 | 0.957 | > 16 | 0.977 | > 5
